Measurements: PubChem BioAssay AID1240 (Sanford-Burnham Center for Chemical Genomics, 2008)
Screen size: about 50,000 compounds; about 800 (1.6%) showed an effect of 50% or more. This is one part of the list.

These compounds were tested against Bcl-2-like protein 10 (Homo sapiens) (UniProt Q9HD36) (assay: TR3 peptide-Bcl-B binding displacers, biochemical primary FP assay, phenotype converters (AID 1240;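 further: 0% = Bcl-B with tracer peptide and DMSO and 100% = tracer peptide lacking Bcl-B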)). Conditions: GST-Bcl-B / FITC-TR3 peptide fluorescence polarization; stronger effect = higher value; compound at 3.75 mg/L.
Sequence of UniProt Q9HD36 (Q9HD36 whole entry, looked up): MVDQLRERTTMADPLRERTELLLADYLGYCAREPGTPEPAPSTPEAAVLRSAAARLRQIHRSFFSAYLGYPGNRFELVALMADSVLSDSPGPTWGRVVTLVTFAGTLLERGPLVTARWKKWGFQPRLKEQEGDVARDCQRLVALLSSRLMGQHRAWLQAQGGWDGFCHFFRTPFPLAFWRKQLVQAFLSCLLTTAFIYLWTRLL
Work on `CC(C)c1ccc(-n2c(O)c(/C=C3\C=Nc4ccccc43)c(=O)[nH]c2=O)cc1` yielded a displacement of 14.5%.
`CC(C)OC(=O)c1ccc(NC(=O)COc2ccc(Cl)cc2)cc1` gave a displacement of -13.1%.
`CCOc1ccccc1NC(=O)C(=O)NCc1ccccc1Cl` gave a displacement of -11.6%.
In the case of `Cc1ccccc1OCC(=O)Nc1cccc(C(F)(F)F)c1`, the displacement was -0.9%.
Work on `CCOC(=O)c1c(-c2ccccc2)oc2cc(Br)c(OCC(=O)C(C)(C)C)cc12` yielded a displacement of 5.4%.
With `CC(C)(C)NCCCCOc1ccc2ccccc2c1` the displacement was 1.4%.
Compound `COc1ccc(-c2ccc(/C=C3/SC(=S)NC3=O)o2)cc1Cl` has a displacement of 8.2%.
Compound `COc1ccc(Cl)cc1C(=O)Nc1nc(-c2ccc(Cl)cc2Cl)cs1` has a displacement of 9.7%.
`O=C(c1ccc(Cl)c([N+](=O)[O-])c1)N1CCN(c2ccc([N+](=O)[O-])cc2)CC1` showed a displacement of 5.7%.
In the case of `COC(=O)C1=C(C)N=c2s/c(=C\c3ccc(Cl)cc3)c(=O)n2C1c1ccc(OC)c(OC)c1` (stereo not given), the displacement was 9.9%.
`CCOC(=O)C1=C(C)NC(C)=C(C(=O)OCC)C1c1ccc(N(C)C)cc1` showed a displacement of 5.1%.
`CCCOc1cccc(C(=O)Nc2scc(-c3ccc(C)cc3)c2C(=O)OC)c1` showed a displacement of 18%.
For `Cc1ccc(-c2ccccc2)n1-c1ccc(O)cc1`, the displacement was 8.7%.
With `O=[N+]([O-])c1ccc(NS(=O)(=O)c2cccs2)cc1` the displacement was 6.5%.
`Cc1ccc(C)c(S(=O)(=O)Nc2ccc(O)c3ccccc23)c1` was tested, and the displacement was 11.4%.
Compound `O=C(CSc1ncccc1C(=O)O)c1ccc(Cl)cc1` has a displacement of -5.1%.
With `O=S(=O)(c1ccc(Cl)cc1)N1CCN(Cc2ccccc2C(F)(F)F)CC1` the displacement was -8.1%.
`CCNC(=O)/C=C/c1cn(-c2ccccc2)nc1-c1ccccc1` was tested, and the displacement was 9.4%.
Compound `CCOC(=O)c1ccccc1NS(=O)(=O)c1ccc(Cl)cc1` has a displacement of 5.4%.
For `NC(=O)c1cc2n(n1)C(C(F)(F)F)CC(c1ccc(Cl)cc1)N2` (stereo not given), the displacement was 5.6%.
With `C=CCNC(=S)NNC(=O)c1ccccc1Br` the displacement was -10.5%.
Compound `CCN(CC)c1ccc(/C=N/NC(=O)c2cc(-c3ccc(Cl)cc3)n[nH]2)cc1` has a displacement of -12.2%.
In the case of `CCOC(=O)c1c(CN(CC)CC)n(C)c2cc(Br)c(OC)cc12`, the displacement was -12.1%.
`Cc1cc(I)ccc1NC(=O)CCCOc1ccc(Cl)cc1Cl` gave a displacement of -2.8%.
For `CCCOC(=O)c1cccc(NC(=O)c2cccs2)c1`, the displacement was -5.3%.
`CC1CCN(C2=NC(=O)/C(=C/c3ccc(O)cc3)S2)CC1` showed a displacement of -32.4%.
Work on `O=C1C2C3C=CC(C2C(=O)N1Cc1ccc(F)cc1)C1C(=O)N(Cc2ccc(F)cc2)C(=O)C31` (stereo not given) yielded a displacement of -8.3%.
In the case of `O=S(=O)(N/N=C/c1ccc2ccccc2c1)c1ccc(Cl)cc1`, the displacement was -6.7%.
For `COc1ccc(CCNC(=O)COc2cc(C)c(Cl)c(C)c2)cc1OC`, the displacement was -3.1%.
In the case of `C/C(=N\NC(=O)c1ccc(Br)cc1)c1cccnc1`, the displacement was 2.5%.
